Reference: the RNAGym collection of RNA variant scans (doi:10.1093/nar/gkz1192)
Read counts are not given, so values of variants with three or more changes are uncertain.

B1: CPEB3 Ribozyme (parent)
chain: UAACAGGGGGCCACAGCAGAAGCGUUCACGUCGCAGCCCCUGUCAGAUUCUGGUGAAUCUGCGAAUUCUGCUGUAUAUCUC

Variants of: B1
Assay: self-cleavage, relative activity (ratio to wild type); higher = more cleavage; in vitro, sequencing
Summary of the method: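 Relative activity was defined as the cleaved/total read fraction for a variant divided by the same fraction for the unmutated ribozyme. CPEB3 self-cleaving ribozyme libraries were made by rounds of error-prone PCR, barcoded, and transcribed in vitro with T7 RNA polymerase for 5 hours at 37°C, and cleavage ran through transcription plus a 15 min DNase I step before EDTA. Illumina sequencing of template-switched reverse transcripts gave the reads, and DNA sequencing mapped the barcodes. Averages come from three batches, using variants with at least 5 reads.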
Work on G10A U60C A64G yielded a self-cleavage of 0.05. Variant G10A U41C U43A U72C has a self-cleavage of 0.55. With G10A U43C U54A A57G C71U U78C the self-cleavage was 0.04. Variant G10A U26C U76A C79A has a self-cleavage of 0.33. With G10A U41C A47G U54C the self-cleavage was 0.33. Variant G9U U31A U51A U54C has a self-cleavage of 0.05. In the case of G9U U26C A77G, the self-cleavage is reported as 0.14. G10A U25A C40U U51C U72C showed a self-cleavage of 0.1. Variant G10A A28C A65U U80C has a self-cleavage of 0.06. G10U A18G A21G U26C G61U showed a self-cleavage of 0.05. G10C A35G A45U A64G U74C gave a self-cleavage of 0.23. G10A A15U U31G U67C A75G showed a self-cleavage of 0.08. G9U U48C A64G showed a self-cleavage of 0.06. For G10A A13C U25C, the self-cleavage was 0.4. G10C C14G A20G U51A G52U G70A showed a self-cleavage of 0.05. Variant G10C A15U A35G U43A U66C has a self-cleavage of 0.05. With G10A A21U U43C the self-cleavage was 0.31. Variant G10U A18G U31C C39U U67C has a self-cleavage of 0.04. G9U U31C U48C U60C U67C showed a self-cleavage of 0.12. G10A A35G A65G U69C showed a self-cleavage of 0.08. In the case of G10A U72G U80C, the self-cleavage is reported as 0.09. For G10C G36U A56G A57G U58C, the self-cleavage was 0.04. With G10U A18G C23A U25C A45G the self-cleavage was 0.03. With G10C G24C G36U G70U the self-cleavage was 0.11. G10A A18U U51C U78A showed a self-cleavage of 0.18. Variant G10A A18G A21G U26A U69C U72C has a self-cleavage of 0.2. For G10A C34U U48C, the self-cleavage was 0.06. With G10C A13G U66C the self-cleavage was 0.16. In the case of G10A A15G G24A U80A, the self-cleavage is reported as 0.04. For G10A A20G A35G C62A U78C, the self-cleavage was 0.05. With G10C U25C U26A A64U the self-cleavage was 0.07. Variant G10A A21U U80C has a self-cleavage of 0.08. With G10A U25C U54A A57U U58C G61A A64G the self-cleavage was 0.03. G10A C14G C39A A45G gave a self-cleavage of 0.05. Variant G10C A15U C27U U43A U51A has a self-cleavage of 0.13. G10A U25C A35G U67C gave a self-cleavage of 0.12. For G10A G52C U67C U78C, the self-cleavage was 0.04. Variant G10C A28G U54C U60C has a self-cleavage of 0.09. In the case of G10C A20U G24C, the self-cleavage is reported as 0.06. For G10A U31C U48C A57G, the self-cleavage was 0.06. G9U U51C U67C gave a self-cleavage of 0.14. G10A U67C U80C showed a self-cleavage of 0.03. With G10C C37U U67C U74C A77U the self-cleavage was 0.09. Variant G10A A13U A45U C79U has a self-cleavage of 0.3. G10A A15G U26A U54A U58C U60C showed a self-cleavage of 0.07. G9U U25C U31C showed a self-cleavage of 0.39. With G10A A21G U25C U48C the self-cleavage was 0.29. G10C A15G U26C G30A A57G showed a self-cleavage of 0.07. Variant G10C A28G G46A G53A has a self-cleavage of 0.07. G10A A13G A21U A65G gave a self-cleavage of 0.13. In the case of G10A C14U C40A U66C U72C, the self-cleavage is reported as 0.08. In the case of G9U U25C C44U U49A U80A, the self-cleavage is reported as 0.07. Variant G10A G24A G63A U67C has a self-cleavage of 0.05. Variant G10A C14U A20G has a self-cleavage of 0.21. Variant G10A G19A U25C U72A U80C has a self-cleavage of 0.25. In the case of G10A C17G U31C U43A A56U U60G, the self-cleavage is reported as 0.04. Variant G10A C29A U49A G52A U80C has a self-cleavage of 0.21. G10C A20U U31G U49C gave a self-cleavage of 0.06. G10A C38A U74C U78C showed a self-cleavage of 0.05. For G10A A13G U26A U31C U54G, the self-cleavage was 0.07. G10C A45C U66C showed a self-cleavage of 0.13. With G10A U31A A45G the self-cleavage was 0.07. In the case of G10A U41C U66A, the self-cleavage is reported as 0.03. For G10C A18U A20G A45G U54C, the self-cleavage was 0.37. In the case of G10C A28G A45G U51A A56G U72C, the self-cleavage is reported as 0.05. Work on G10A A45U U76C yielded a self-cleavage of 0.21. Variant G10A A18U U43A A47G A56G C62A A77G has a self-cleavage of 0.03. G10A A18U G36U C40G U72A gave a self-cleavage of 0.09. G10C A21U U66C gave a self-cleavage of 0.38. In the case of G10A A20U A45U, the self-cleavage is reported as 0.15. In the case of G10A U31C U66C, the self-cleavage is reported as 0.2. Work on G10A C29U A47G yielded a self-cleavage of 0.16. G10A A21G A35U A47G showed a self-cleavage of 0.04. In the case of G10A U25C U31C C38A U43C U72C U80C, the self-cleavage is reported as 0.06. Work on G10A U26A A35G yielded a self-cleavage of 0.59. Variant G10A A13G U43C U58A has a self-cleavage of 0.05. Variant G10A A13G A18G A35G U43A has a self-cleavage of 0.07. Variant G10C A18G A21G A64G U66C has a self-cleavage of 0.1. Variant G10C U78C U80A has a self-cleavage of 0.2. Variant G10A A28U G36A has a self-cleavage of 0.05. G10A G46U A64G U69C A75U U80C gave a self-cleavage of 0.11. G10A A15U C29U A45G A65U U67C showed a self-cleavage of 0.04. G10A A18G U41A U43G showed a self-cleavage of 0.05. For G10A U54A A65U U67G, the self-cleavage was 0.04. G10A A21C G33U U49C A65G U67C U72A gave a self-cleavage of 0.04. G10A A18U A21G U41A U67C gave a self-cleavage of 0.06. For G10A A15G A18U U26C U49G, the self-cleavage was 0.05. In the case of G9U U31C A64G U66C U78C, the self-cleavage is reported as 0.08. With G10A A13G A21G C27A U48A A75G the self-cleavage was 0.02. G10A C11U C23U U43A A64G U78C showed a self-cleavage of 0.13. G10C U25C A35U A65C U74C showed a self-cleavage of 0.06. G10C A57G U58A A64G gave a self-cleavage of 0.1. In the case of G10A C12G G24A G53A, the self-cleavage is reported as 0.26. With G10A A64G U74C the self-cleavage was 0.12. Work on G10A A64G U74A yielded a self-cleavage of 0.19. With G10A G24C U25A U54C the self-cleavage was 0.04. G10A U41C U54C U58C A65U U66C U74C gave a self-cleavage of 0.05. In the case of G10U A20G A21U U80C, the self-cleavage is reported as 0.28. G10A C29U U78A gave a self-cleavage of 0.09. Work on G9U U69C U72C U80C yielded a self-cleavage of 0.02. G10C A28G U60A showed a self-cleavage of 0.17. With G10A A21U U31C G52A A64G the self-cleavage was 0.04. G10A A15G G30A U48C showed a self-cleavage of 0.17. G9U U54G U67C showed a self-cleavage of 0.06. In the case of G10A A64U U76A, the self-cleavage is reported as 0.08. In the case of G10A A45U A64U U69A U72C, the self-cleavage is reported as 0.08. G10A C29U A35C U41C U51C gave a self-cleavage of 0.22. Variant G10A C40A A75U U80C has a self-cleavage of 0.08. Variant G10A G19A A21G U26C A45G A56U has a self-cleavage of 0.03. Work on G10A A18G G53A U66C U72A yielded a self-cleavage of 0.05. G10C U26C C27U A56G gave a self-cleavage of 0.13. Variant G9U U49A G61A has a self-cleavage of 0.19. Work on G10C U51C U66C U78C yielded a self-cleavage of 0.06. G10A G36C U43C U66C U69A gave a self-cleavage of 0.05. With G10A U25A U74C the self-cleavage was 0.07. G10A A13G U66C A75G showed a self-cleavage of 0.06. G10A G24A U48C U54C U60C U80C showed a self-cleavage of 0.04. For G10C A13G U41C A57G U69C, the self-cleavage was 0.17. With G10C A18G A56G U72A the self-cleavage was 0.1. Variant G10A U66G A75G has a self-cleavage of 0.29. Variant G10A U31C A64G U66C has a self-cleavage of 0.04. Variant G10A A15G A28G A45G G46A has a self-cleavage of 0.2. With G10A A15G U49C U74A the self-cleavage was 0.19. Variant G10A A13U U43C G63U A64G has a self-cleavage of 0. In the case of G10A A18G A28U A65G U69A U72C, the self-cleavage is reported as 0.05. G10A A20U U26C A45U U72A gave a self-cleavage of 0.17. With G10A U25C G30A U48A U66C the self-cleavage was 0.05. With G10A A28G U69C U72A the self-cleavage was 0.25. With G10A U41A U78C the self-cleavage was 0.07. Work on G10A U26C G36A U60C U74C yielded a self-cleavage of 0.06. For G9U U31A A45U U60C, the self-cleavage was 0.18. G10C A18G G30A gave a self-cleavage of 0.39. In the case of G10A U43G A47U U74C, the self-cleavage is reported as 0.19. In the case of G9U U25C A45G U72A U80C, the self-cleavage is reported as 0.42. In the case of G10A A15U A56G U67C, the self-cleavage is reported as 0.35. Variant G10A A15G A20G U67C U74C has a self-cleavage of 0.04. In the case of G10A G22A U41G G52C U80C, the self-cleavage is reported as 0.04. Variant G10A U31C U60C U78G U80A has a self-cleavage of 0.03. G10A A18U C39A U69A showed a self-cleavage of 0.06. Variant G10A A20G A28U A35G U48C has a self-cleavage of 0.35. Work on G9U U60C A64U U72C A77C yielded a self-cleavage of 0.05. With G10C A15G U76C the self-cleavage was 0.29. For G10A A15G C44G U66A U80A, the self-cleavage was 0.01. With G10A A28G U51A the self-cleavage was 0.19. G10A C23U U26A U43C U51C A64U showed a self-cleavage of 0.04. In the case of G10A U31A U69C, the self-cleavage is reported as 0.32. For G10C G19U A45U A65G, the self-cleavage was 0.05. G10A U26C U41A U60C U78C gave a self-cleavage of 0.23. Work on G10C A57G A65G U76A yielded a self-cleavage of 0.04. G10A A20G U43C A57G U80A showed a self-cleavage of 0.26. With G10A A56G A57G the self-cleavage was 0.13. For G10A G46A A56G U66C C71U U72C, the self-cleavage was 0.13. With G9U U41C G53A the self-cleavage was 0.16. Work on G10C A20G U67C yielded a self-cleavage of 0.07. With G10A A15G A21G the self-cleavage was 0.08. Variant G10C C17U U54C has a self-cleavage of 0.27. Variant G10A A18U C37A U48C has a self-cleavage of 0.26. For G10A U41C U49A A56G C71G, the self-cleavage was 0.16. Variant G9U U25C U41A has a self-cleavage of 0.14. Variant G9U U25C U31G U41A U58C U80C has a self-cleavage of 0.04. Work on G10A A21G A28U U69A yielded a self-cleavage of 0.14. With G10A A13U A21G C59A U76C the self-cleavage was 0.04. In the case of G10A U26G A35G U43C A47G U49A U51A, the self-cleavage is reported as 0.07. For G10A A35G U43C, the self-cleavage was 0.49. G10C U49A U54C A65G U67C showed a self-cleavage of 0.18. G10A C27U U69C showed a self-cleavage of 0.15. G10A U25A C40A A57U U72C showed a self-cleavage of 0.
